Measurements as given in publication PMC4336329 (PLoS ONE, 2015).
In all, about 310,000 compounds went through this assay and about 14,000 (4.5%) showed an effect of 50% or more. Effects have a minus sign here. Some of the results follow.

biological target: human ether-à-go-go-related gene (hERG) potassium channel (human, UniProt Q12809); test: primary screen, population patch clamp on CHO cells stably expressing hERG
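Also: peak tail current of the secondary pulse compared with the same well before compound.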

human ether-à-go-go-related gene (hERG) potassium channel, sequence (Q12809 whole entry, looked up): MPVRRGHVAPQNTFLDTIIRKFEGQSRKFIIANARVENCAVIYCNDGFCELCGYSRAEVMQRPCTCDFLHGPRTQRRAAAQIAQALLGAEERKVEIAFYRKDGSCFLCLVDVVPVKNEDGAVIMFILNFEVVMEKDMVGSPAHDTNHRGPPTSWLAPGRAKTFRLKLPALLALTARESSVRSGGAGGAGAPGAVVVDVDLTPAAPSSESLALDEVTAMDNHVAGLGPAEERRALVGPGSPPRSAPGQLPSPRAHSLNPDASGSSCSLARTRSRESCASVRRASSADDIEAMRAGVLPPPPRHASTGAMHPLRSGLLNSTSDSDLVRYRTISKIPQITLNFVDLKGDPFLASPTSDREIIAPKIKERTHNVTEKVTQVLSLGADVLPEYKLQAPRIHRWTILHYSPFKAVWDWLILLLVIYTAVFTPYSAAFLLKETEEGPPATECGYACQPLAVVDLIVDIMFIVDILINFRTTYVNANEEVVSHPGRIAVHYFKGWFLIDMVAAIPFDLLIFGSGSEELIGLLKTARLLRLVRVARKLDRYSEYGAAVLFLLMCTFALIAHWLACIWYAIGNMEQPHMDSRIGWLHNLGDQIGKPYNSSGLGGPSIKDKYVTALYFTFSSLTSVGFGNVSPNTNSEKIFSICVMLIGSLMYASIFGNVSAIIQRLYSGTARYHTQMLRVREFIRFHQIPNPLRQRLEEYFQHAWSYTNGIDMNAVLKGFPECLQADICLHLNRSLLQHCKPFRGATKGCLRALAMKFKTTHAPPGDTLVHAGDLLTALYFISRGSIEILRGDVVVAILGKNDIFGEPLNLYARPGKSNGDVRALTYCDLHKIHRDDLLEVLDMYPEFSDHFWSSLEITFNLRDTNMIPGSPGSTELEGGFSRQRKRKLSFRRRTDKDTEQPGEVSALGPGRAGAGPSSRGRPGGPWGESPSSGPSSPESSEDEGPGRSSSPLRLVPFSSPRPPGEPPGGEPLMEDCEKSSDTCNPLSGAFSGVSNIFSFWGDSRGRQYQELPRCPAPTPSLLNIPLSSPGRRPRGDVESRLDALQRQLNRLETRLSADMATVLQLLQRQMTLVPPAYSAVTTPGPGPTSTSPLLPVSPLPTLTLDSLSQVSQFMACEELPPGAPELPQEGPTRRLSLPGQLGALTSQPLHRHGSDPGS

Row | SMILES | hERG current change (%, negative = inhibition) at 10uM [%]
1 | Cc1ccc(C(=O)CSc2nnc(C(C)C)n2C)cc1C | 11.2
2 | COc1ccc(COCC(CC(C)C)N2CCN(C(=O)c3cccc(C(F)(F)F)c3)CCC2=O)cc1 (stereo not drawn) | -19.8
3 | O=C(O)/C=C/c1ccccc1Oc1ccc(Cl)cc1Cl | -8.85
4 | COc1ccc(-c2ccc(=O)n(CC(=O)Nc3cccc(O)c3)n2)cc1OC | 19.8
5 | Cc1noc(C)c1COc1ccccc1C(=O)NNC(=O)C(C)Oc1ccccc1F (stereo not drawn) | -33.9
6 | Cc1ccc2c(Cl)c(C(=O)NCC(c3ccco3)N3CCCC3)sc2c1 (stereo not drawn) | 3.84
7 | CCN(CCNC(=O)C1CCN(S(=O)(=O)CC)CC1)c1ccccc1 | -16.9
8 | CSc1nc(C(=O)N2CCCC(Nc3ccc(C)c(C)c3)C2)cs1 (stereo not drawn) | -22.4
9 | CCN(C(=O)COC(=O)c1c(C)noc1C)C1CCS(=O)(=O)C1 (stereo not drawn) | 25.6
10 | CN1C(=O)c2ccccc2C(C(=O)NCCCN2CCCC2=O)C1c1c[nH]c2ccccc12 (stereo not drawn) | 12.4
11 | COc1ccc(NC(=S)N=Nc2c(O)[nH]c3ccccc23)cc1 | 2.26
12 | CCOc1ccccc1OC(=O)c1ccco1 | -2.36
13 | Cc1c(C)c2c(c(C)c1O)CC[C@@](C)(CCC[C@H](C)CCC[C@H](C)CCCC(C)C)O2 | 9.88
14 | Cl.Nc1ccc(O)c2ccccc12 | 11.6
15 | Cc1ccc(Cl)cc1N1CCN(C(CC(C)C)c2nnnn2CC2CCCO2)CC1 (stereo not drawn) | 1.21
16 | CS(=O)(=O)N(CC(=O)NCc1ccco1)c1cccc([N+](=O)[O-])c1 | -7.78
17 | COc1ccc(S(=O)(=O)N2CCCC(C(=O)NCCC3=CCCCC3)C2)cc1 (stereo not drawn) | 12.1
18 | COc1ccc(N2CCN(C(c3cccc(OC)c3OC)c3nnnn3C3CCCC3)CC2)cc1.Cl (stereo not drawn) | 7.82
19 | Cc1nc2ccccn2c1C(=O)NCc1cccnc1 | -3.36
20 | O=C(CSCc1c(F)cccc1Cl)NCCSCc1ccco1 | 0.51
21 | CCC(C)(C)NC(=O)C(c1ccccn1)N(C(=O)c1csnn1)c1ccc(C)cc1 (stereo not drawn) | -10.2
22 | O=C(CSc1nnc(NC2CC2)s1)NN1C(=O)NC2(CCCCC2)C1=O | -1.61

Row | SMILES | hERG current change (%, negative = inhibition) at 10uM [%]
23 | CCc1nc2ccccc2nc1N1CCN(S(=O)(=O)c2ccccc2)CC1 | 7.4
24 | COc1ccc(CN(C)C(=O)COC(=O)c2c(-c3ccccc3Cl)noc2C)cc1 | -15.1
25 | CCN(CC)CC(O)Cn1c2ccccc2c2ccccc21 (stereo not drawn) | -16
26 | CC1(OC(=O)CCc2ccccc2)C(=O)C=C2C=C(c3ccc(C#N)cc3)N(Cc3ccco3)C=C2C1=O (stereo not drawn) | -38.9
27 | CC1CCCCN1CCn1c(=S)[nH]c2ncccc2c1=O (stereo not drawn) | -5.69
28 | COc1cc(/C=C(\C#N)C(=O)NC2CCCCC2)ccc1OCc1ccc(C(=O)O)cc1 | 26.3
29 | O=[N+]([O-])c1ccc(-c2ccc(/C=N/Nc3nc(NCc4ccccc4)nc(N4CCOCC4)n3)o2)cc1 | 2.75
30 | CC(=O)N1CCn2c3ccc(C)cc3c3cccc1c32 | -0.647
31 | CCCC(=O)Nc1nc(-c2ccccc2)ns1 | -9.53
32 | Cc1ccc(S(=O)(=O)N(C)Cc2ccc(C(=O)NN=C3C4CC5CC(C4)CC3C5)cc2)cc1 | 0.806
33 | COc1c(C)cccc1C(=O)Nc1cc(-c2nn3c(C)nnc3s2)ccc1C | 3.05
34 | O=C1CCN(C(=O)Nc2ccccc2)N1 | 19.7
35 | COc1ccc2c(C)cc(SCC(=O)NCC3CCCO3)nc2c1 (stereo not drawn) | -17.9
36 | CCOc1[nH]n(-c2ccc(Cl)cc2)c(=O)c1C=NCc1cccnc1 | -42.1
37 | COC(=O)c1c(C)nc2nonc2c1N | 16.8
38 | CCOC(=O)c1sc(NC(=O)CSc2ncn(-c3ccccc3)n2)nc1C | 7.23
39 | COc1ccc(NCC(=O)Nc2ccccc2C#N)cc1Cl | -3.28
40 | CC(=O)NCC(=O)OCC(=O)Nc1ccc(C(C)=O)cc1 | 4.36
41 | O=C(NCCO)/C(=C\c1cccs1)NC(=O)c1cccs1 | 18.7
42 | Cc1ccc(-n2c(SCC(=O)N3CCOCC3)nnc2-c2cccnc2)cc1C | -16.9
43 | COc1cccc(/C=N/NC(=O)c2nnn(-c3nonc3N)c2C(C)C)c1OCc1ccc(F)cc1 | 1.64
44 | O=C(COC(=O)c1cccnc1Cl)c1ccc(OC(F)F)cc1 | -23.4

Row | SMILES | hERG current change (%, negative = inhibition) at 10uM [%]
45 | O=C(NCC1COc2ccccc2O1)C1CCCN(S(=O)(=O)c2cnc[nH]2)C1 (stereo not drawn) | 7.84
46 | CC(C)CCNC(=O)c1nn(Cc2ccccc2)c(=O)c2ccccc12 | 5.59
47 | COc1ccc(S(=O)(=O)Nc2cccc(SC)c2)cc1OC | -0.907
48 | O=C(N/N=C/c1cccnc1)c1cc(O)c(O)c(O)c1 | 26.3
49 | O=C(c1ccc2c3c(cccc13)CC2)C1CCCN(C(=O)c2cc[n+]([O-])cc2)C1 (stereo not drawn) | 7.06
50 | Cc1ccc(-n2nnnc2-c2cnc3ccc(Cl)cc3c2-c2ccccc2)cc1 | -16.7
51 | S=C(NCc1ccco1)NC1CCCc2ccccc21 (stereo not drawn) | -4.65
52 | COc1ccc(C(=O)OCC(=O)NC(C)CCc2ccccc2)cc1 (stereo not drawn) | 2.23
53 | O=C(NC(=S)N1CCCCC1c1cccnc1)c1ccc(Br)cc1 (stereo not drawn) | -45.6
54 | COC(=O)c1c(C)cc(O)cc1O | 19.3
55 | Cc1noc(NS(=O)(=O)c2ccc(N)cc2)c1C | 13.4
56 | CCC(=O)Nc1nc(C)nc(C)c1C(C)=O | 13.3
57 | Cc1nnc(SCc2nc(N)nc(Nc3ccccc3)n2)s1 | -12.3
58 | O=C(Nc1nc2ccccc2n1Cc1ccc(Cl)cc1)c1ccco1 | 5.47
59 | NC(=O)CC(NC(=O)Cc1ccc(Cl)cc1)c1ccc(N2CCC(Cc3ccccc3)CC2)c([N+](=O)[O-])c1 (stereo not drawn) | 17.7
60 | Br.CC1(C)OC(c2ccccc2)=C/C(=C/C=Nc2ccccc2)O1 | -12.9
61 | COc1cc(NC(=O)CN2C(=O)c3ccccc3C2=O)c(C(=O)O)cc1OC | 13.8
62 | CCn1c(Cc2ccccc2)nnc1SCc1cccc(C(=O)O)c1 | -2.1
63 | OCC[N+]12CCC(CC1)C(C(O)(c1ccccc1)c1ccccc1)C2 (stereo not drawn) | 15.7
64 | CC(=O)NC(Cc1ccccc1)C(=O)O (stereo not drawn) | 19.7
65 | O=C(CCCC(=O)N(c1ccc(F)cc1)C(C(=O)NC1CCCC1)c1ccc(O)cc1)Nc1ccccn1 (stereo not drawn) | -5.27
66 | CCOc1ccc(NC(=O)CCSc2ccc3ccccc3n2)cc1 | -5.77

Row | SMILES | hERG current change (%, negative = inhibition) at 10uM [%]
67 | CCOc1cc(C(=S)N2CCOCC2)ccc1OS(=O)(=O)c1ccc(NC(C)=O)cc1 | -2.37
68 | O=C1CC(N2CCN(S(=O)(=O)c3ccccc3F)CC2)C(=O)N1c1ccccc1Cl (stereo not drawn) | -3.61
69 | CCc1ccc(Nc2nc(C)cc(C)n2)cc1.Cl | -1.21
70 | CC1Cc2ccccc2N1C(=O)C(C)n1cc(C(F)(F)F)cc(Cl)c1=O (stereo not drawn) | 5.52
71 | O=C(NCCN1CCN(c2ccccc2F)CC1)C1c2ccccc2C(=O)N2CCc3ccccc3C12 (stereo not drawn) | -11.8
72 | COc1ccc(OC)c(-c2c3cc(O)c(=O)cc-3oc3cc(O)c(O)cc23)c1 | 5.48
73 | C=CCOC(=O)C1=C[C@H](c2ccc(C(F)(F)F)cc2)[C@@H](CCCO)[C@H](OCC)O1 | -16.3
74 | O=C(Cc1csc(NC(=O)Nc2ccc(Cl)cc2)n1)NCc1ccccn1 | -44.7
75 | CCn1cc(C(=O)O)c(=O)c2cc(F)c(N3CCN(C(=S)NC(=O)c4ccccc4F)CC3)cc21 | 2.73
76 | Cc1[nH]n(-c2ccccc2)c(=O)c1N=Nc1c(O)cc(S(=O)(=O)N(C)C)c2ccccc12 | 22.8
77 | CCOC(=O)c1sc2ccccc2c1OC(=O)c1ccccc1OC | 14.8
78 | COc1ccccc1C(=O)N/C(=C/c1ccc(Br)cc1)C(=O)NCCO | -24
79 | CN(C)CCCNc1c2c(nc3cc(-c4cccc(F)c4)nn13)CCC2 | -69.1
80 | Cc1cc(C)nc(NS(=O)(=O)c2ccc(NS(=O)(=O)c3ccc(C#N)cc3)cc2)n1 | -4.23
81 | CCN(CC)C(=O)CSc1nc2ccccc2c(=O)n1-c1cccc(OC)c1 | -14.7
82 | Cc1ccc2ccc3cccc4ccc1c2c34 | 14
83 | Cc1ccc(-c2nn(Cc3ccccc3)cc2C=O)cc1 | -6.3
84 | Cc1cccc(C(=O)NCc2nnc(SCC(=O)NC(C)c3ccccc3)n2C)c1 (stereo not drawn) | 3.31
85 | COc1ccc(Br)cc1CNC(=O)C1CCN(c2nnc(N3CCCC3=O)s2)CC1 | 13.9
86 | CCCCn1c(-c2ccccc2)nnc1-c1ccccc1 | -10.9
87 | Cc1ccc(CNC(=S)Nc2ccc(C)c([N+](=O)[O-])c2)cc1 | 17.5
